Test results: the supplement of paper PMC10369915
This is one part of the list. Rule as the data show it: active = 3.2 or more and inactive = the rest. The signal is at background level for most entries.
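Also: displayed peptides selected on beads carrying the immobilized SH2 domain, with library peptides lacking any tyrosine serving as negative controls.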

The binders below were run against SHP2 C-SH2 domain E139D (assay: enrichment score (SH2-bound / input frequency) (ratio); bacterial display of known human phosphotyrosine sites (pTyr-Var adds point mutants) read by sequencing; higher = stronger binding; tyrosines were phosphorylated by kinases first). Conditions: peptide library: pTyr-Var.
With RDLTHYLMKIL [ACTG1_Y188_D187H] the enrichment score was active: 3.52. LTERGYSFTTK [ACTG1_Y198_T203K] was tested, and the enrichment score was inactive: 0.665. WHHIFYNELRV [ACTG1_Y91_T89I] was tested, and the enrichment score was inactive: 1.16. GGPTYYIDTNA [ACTL6A_Y69] was tested, and the enrichment score was inactive: 0.834. For GGSTYYIDTNA [ACTL6A_Y69_P66S], the enrichment score was inactive: 0.572. SSSNPYSTVTM [ACTN2_Y599] was tested, and the enrichment score was inactive: 0.885. In the case of KAIMTYVSSFY [ACTN4_Y260], the enrichment score is reported as inactive: 0.826. For EAIMTYVSSFY [ACTN4_Y260_K255E], the enrichment score was inactive: 0.777. In the case of EAIMTYVSSFF [ACTN4_Y260_K255E_YF], the enrichment score is reported as inactive: 0.761.

The binders below were run against SHP2 C-SH2 domain wild-type in the same assay as above. Conditions: peptide library: pTyr-Var.
For RDLTHYLMKIL [ACTG1_Y188_D187H], the enrichment score was active: 3.82. With LTERGYSFTTK [ACTG1_Y198_T203K] the enrichment score was inactive: 0.527. WHHIFYNELRV [ACTG1_Y91_T89I] was tested, and the enrichment score was inactive: 1.25. With GGPTYYIDTNA [ACTL6A_Y69] the enrichment score was inactive: 0.791. GGSTYYIDTNA [ACTL6A_Y69_P66S] was tested, and the enrichment score was inactive: 0.675. SSSNPYSTVTM [ACTN2_Y599] was tested, and the enrichment score was inactive: 2.38. For KAIMTYVSSFY [ACTN4_Y260], the enrichment score was inactive: 0.736. With EAIMTYVSSFY [ACTN4_Y260_K255E] the enrichment score was inactive: 0.631. For EAIMTYVSSFF [ACTN4_Y260_K255E_YF], the enrichment score was inactive: 0.622.

These binders were tested against SHP2 N-SH2 domain L43F in the same assay as above. Conditions: peptide library: pTyr-Var.
For RDLTHYLMKIL [ACTG1_Y188_D187H], the enrichment score was active: 3.62. In the case of LTERGYSFTTK [ACTG1_Y198_T203K], the enrichment score is reported as inactive: 0.567. In the case of WHHIFYNELRV [ACTG1_Y91_T89I], the enrichment score is reported as inactive: 1.26. In the case of GGPTYYIDTNA [ACTL6A_Y69], the enrichment score is reported as inactive: 0.778. GGSTYYIDTNA [ACTL6A_Y69_P66S] was tested, and the enrichment score was inactive: 0.932. In the case of SSSNPYSTVTM [ACTN2_Y599], the enrichment score is reported as inactive: 0.548. With KAIMTYVSSFY [ACTN4_Y260] the enrichment score was inactive: 0.717. EAIMTYVSSFY [ACTN4_Y260_K255E] was tested, and the enrichment score was inactive: 0.749. EAIMTYVSSFF [ACTN4_Y260_K255E_YF] was tested, and the enrichment score was inactive: 0.671.

The binders below were run against SHP2 N-SH2 domain T42A in the same assay as above. Conditions: peptide library: pTyr-Var.
In the case of RDLTHYLMKIL [ACTG1_Y188_D187H], the enrichment score is reported as active: 3.41. With LTERGYSFTTK [ACTG1_Y198_T203K] the enrichment score was inactive: 0.583. WHHIFYNELRV [ACTG1_Y91_T89I] was tested, and the enrichment score was inactive: 1.25. With GGPTYYIDTNA [ACTL6A_Y69] the enrichment score was inactive: 0.942. With GGSTYYIDTNA [ACTL6A_Y69_P66S] the enrichment score was inactive: 0.992. For SSSNPYSTVTM [ACTN2_Y599], the enrichment score was inactive: 0.749. In the case of KAIMTYVSSFY [ACTN4_Y260], the enrichment score is reported as inactive: 0.582. EAIMTYVSSFY [ACTN4_Y260_K255E] was tested, and the enrichment score was inactive: 0.61. In the case of EAIMTYVSSFF [ACTN4_Y260_K255E_YF], the enrichment score is reported as inactive: 0.497.

What follows are binders tested against SHP2 N-SH2 domain T52S in the same assay as above. Conditions: peptide library: pTyr-Var.
With RDLTHYLMKIL [ACTG1_Y188_D187H] the enrichment score was active: 3.2. In the case of LTERGYSFTTK [ACTG1_Y198_T203K], the enrichment score is reported as inactive: 0.835. With WHHIFYNELRV [ACTG1_Y91_T89I] the enrichment score was inactive: 1.24. For GGPTYYIDTNA [ACTL6A_Y69], the enrichment score was inactive: 0.661. With GGSTYYIDTNA [ACTL6A_Y69_P66S] the enrichment score was inactive: 0.643. SSSNPYSTVTM [ACTN2_Y599] was tested, and the enrichment score was inactive: 0.508. With KAIMTYVSSFY [ACTN4_Y260] the enrichment score was inactive: 0.797. In the case of EAIMTYVSSFY [ACTN4_Y260_K255E], the enrichment score is reported as inactive: 0.683. With EAIMTYVSSFF [ACTN4_Y260_K255E_YF] the enrichment score was inactive: 0.655.

What follows are binders tested against SHP2 N-SH2 domain wild-type in the same assay as above. Conditions: peptide library: pTyr-Var.
For RDLTHYLMKIL [ACTG1_Y188_D187H], the enrichment score was active: 3.39. For LTERGYSFTTK [ACTG1_Y198_T203K], the enrichment score was inactive: 0.594. In the case of WHHIFYNELRV [ACTG1_Y91_T89I], the enrichment score is reported as inactive: 1.41. For GGPTYYIDTNA [ACTL6A_Y69], the enrichment score was inactive: 0.936. With GGSTYYIDTNA [ACTL6A_Y69_P66S] the enrichment score was inactive: 0.885. For SSSNPYSTVTM [ACTN2_Y599], the enrichment score was inactive: 0.629. For KAIMTYVSSFY [ACTN4_Y260], the enrichment score was inactive: 0.845. For EAIMTYVSSFY [ACTN4_Y260_K255E], the enrichment score was inactive: 0.767. EAIMTYVSSFF [ACTN4_Y260_K255E_YF] was tested, and the enrichment score was inactive: 0.65.
